In patent US11366114B2, “Genetically encoded fluorescent sensors for detecting ligand bias and intracellular signaling through cAMP pathways” (MONTANA MOLECULAR LLC, priority 2013, dated 2022):

System: cAMP
Experiment: Fluorescence response of cAMP sensors to isoproterenol in HEK 293 cells co-expressing the beta adrenergic receptor
Assay type: cell-based, human
Experimental: To test the functionality of these 28 prototype sensors, each construct was co-expressed with the beta adrenergic receptor, which couples to the Gs signaling pathway when activated by isoproteronol, in HEK 293 cells, and the fluorescence measured as described below. Briefly, 96-well glass-bottom plates were coated with Poly-D-Lysine (Fisher Scientific, Pittsburgh, Pa.) and HEK 293 were seeded and cultured in EMEM (ATCC, Manassas, Va.) supplemented with 10% fetal bovine serum and Penicillin-Streptomycin at 37 […] and 30 ng of beta adrenergic receptor per well, using Lipofectamine 2000 Transfection Reagent (Life Technologies, Grand Island, N.Y.) according to the manufacturer's protocol, and incubated for 24-48 hours at 37° C. in 5% CO2.
Prior to screening transfected cells for fluorescence, he EMEM culture medium was removed and 1×DPBS added to each well. A Zeiss Axiovert S100TV inverted microscope equipped with computer controlled excitation/emission filter wheels, shutters, and a Qimaging Retiga Exi CCD camera (Surrey, BC Canada) was used to image cells at 25e A) supplemented with 10% fetal bovine serum and Penicillin-Streptomycin at 37hn filters were used to resolve the green fluorescence from the cAMP sensors. Cells were analyzed for increases or decreases in fluorescence intensity upon addition of isoproternol, DMSO, forskolin and IBMX. To analyze the image stacks, background fluorescence was defined as a region of the image that contained no cells. The average value of this region was subtracted frame by frame from the measurements of the mean pixel values of the fluorescent cells. Fluorescence intensity data was plotted and analyzed with IGOR (Wavemetrics, Oswego, Oreg.).
For transient expression and screening in an automated fluorescence plate reader, HEK 293T cells were cultured in Corning Co-Star Polystyrene 96-well plates coated with Poly-D-Lysine. HEK293T cells were plated at 35,000 cells/well in 100 μl growth medium per well without antibiotics so that the cells would be 90-95% confluent at the time of transfection (approximately 24 hours later). For each transfection (i.e. one well in a 96-well plate), 160 ng of plasmid DNA (120 ng sensor+40 ng receptor) was diluted in […] and then the mixture was replaced with fresh medium. Prior to scanning a plate on the Biotek Synergy Mx, EMEM culture medium was replaced with 250 μl of 1×DPBS per well. Plates were read at 25° C., using monochromators set to 488/20 nm excitation and 530/20 nm emission to resolve the green fluorescence from the cAMP sensor.

B1: Library 6-2 C1: cAMP sensor with random two-amino-acid linkers, position 10 of Epac2; SEQID 16 in Table 1, SEQ ID NO: 17 in Table 3 (protein)
chain: MVAAHAAHSSSSAEWIACLDKRPLERSSEDVDIIFTRLKEVKAFEKFHPNLLHQICLCGYYENLEKGITLFRQGDIGTNWYAVLAGSLDVKVSETSSHQDAVTICTLGIGTAFGESILDNTPRHATIVTRESSELLRIEQKDFKALWEKYRQYMAGLLAPPYGVMETGSNNDRIPDKENTPLIEPHVPLRPANTITKVPSEKILRAGKILRNAILSRAPHMIRDRKYHLKTYRQCCVGTELVDWMMQQTPCVHSRTQAVGMWQVLLEDGVLNHVDQEHHFQDKYLFYRFLDDEHEDAPLPTEEEKKECDEELQDTMLLLSQMGPDAHMRMILRKPPGQRTVDDLEIIYEELLHIKALSHLSTTVKRELAGVLIFESHAKGGTVLFNQGEEGTSWYIILKGSVNVVIYGKGVVCTLHEGDDFGKLALVNDAPRAASIVLREDNCHFLRVDKEDFNRILRDVEANLENVYIKADKQKNGIKANFKIRHNIEDGGVQLAYHYQQNTPIGDGPVLLPDNHYLSVQSILSKDPNEKRDHMVLLEFVTAAGITLGMDELYKGGTGGSMVSKGEELFTGVVPIQVELDGDVNGHKFSVSGEGEGDATYGKLTLKFICTTGKLPVPWPTLVTTLTYGVQCFSRYPDHMKQHDFFKSAMPEGYIQERTIFFKDDGNYKTRAEVKFEGDTLVNRIELKGIDFKEDGNILGHKLEYNTRTVRLKEHDQDVLVLEKVPAGNRASNQGNSQPQQKYTVMSGTPEKILEHFLETIRLEATLNEATDSVLNDFIMMHCVFMPNTQLCPALVAHYHAQPSQGTEQEKMDYALNNKRRVIRLVLQWAAMYGDLLQEDDVSMAFLEEFYVSVSDDARMIAALKEQLPELEKIVKQISEDAKAPQKKHKVLLQQFNTGDERAQKRQPIRGSDEVLFKVYCMDPTYTTIRVPVATSVKEVISAVADKLGSGEGLIIVKMSSGGEKVVLKPNDVSVFMTLTINGRLFACPREQFDSLTPLPEQEGPTVGTVGTFELMSSKDLAYQMTIYDWELFNCVHELELIYHTFGRHNFKKTTANLDLFLRRFNEIQFWVVTEICLCSQLSKRVQLLKKFIKIAAHCKEYKNLNSFFAIVMGLSNVAVSRLALTWEKLPSKFKKFYAEFESLMDPSRNHRAYRLTVAKLEPPLIPFMPLLIKDMTFTHEGNKTFIDNLVNFEKMRMIANTARTVRYYRSQPFNPDAAQANKNHQDVRSYVRQLNVIDNQRTLSQMSHRLEPRRP
Direction not given
  change in fluorescence in response to drug: 30%
In response to isoproternol
  Relative Change in Fluorescence: −34%
